Results published in the supplement of paper PMC12217912.
Some of the results follow. Sequences were assembled here from the parent chain. Inactive controls read about 0.05.

B1: TEV protease; numbered along this chain (parent)
chain: MGESLFKGPRDYNPISSSICHLTNESDGHTTSLYGIGFGPFIITNKHLFRRNNGTLVVQSLHGVFKVKDTTTLQQHLVDGRDMIIIRMPKDFPPFPQKLKFREPQREERICLVTTNFQTKSMSSMVSDTSCTFPSGDGIFWKHWIQTKDGQCGSPLVSTRDGFIVGIHSASNFTNTNNYFTSVPKNFMELLTNQEAQQWVSGWRLNADSVLWGGHKVFMVKPEEPFQPVKEATQL

Variants of: B1
Test: raw area under fraction-flipped curve 0-4 h after induction (AUC4h, not background-subtracted), DNA-recorder readout of cleavage of the substrate (dimensionless); higher = more cleavage of the substrate by the protease variant
Conditions: temperature: 34 °C; time window: 0-4 h after rhamnose induction
Method: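 In vivo DNA recorder in E. coli TOP10(DE3) ΔrhaA at 34 °C. Each TEVp single-site mutant (parent TEVp 0) is paired with a single-site variant of the 7-mer TEVs (canonical ENLYFQ|S). The substrate sits between flexible linkers in a Bxb1-sfGFP-TEVs-SsrA fusion, so cleavage stabilises Bxb1 and speeds flipping of a recombination array, read by NGS. The value is the raw area under the fraction-flipped curve over 0-4 h after rhamnose induction (AUC4h), with ≥20 reads per time point. It is not background-subtracted; inactive controls average about 0.047.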
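Also: Bxb1 expression induced with 0.2% (w/v) L-rhamnose at OD600 near 0.5, cultures sampled hourly, flipped fraction per protease–substrate barcode pair counted by paired-end Illumina sequencing.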

Row | Variant | area with substrate ECLYFQS | area with substrate EDLYFQS | area with substrate EHLYFQS | area with substrate EQLYFQS | area with substrate ERLYFQS | area with substrate ESLYFQS | area with substrate ETLYFQS | area with substrate EVLYFQS | area with substrate EYLYFQS | area with substrate EILYFQS | area with substrate ELLYFQS | area with substrate EMLYFQS | area with substrate EWLYFQS | area with substrate EFLYFQS | area with substrate EKLYFQS | area with substrate EGLYFQS | area with substrate EELYFQS | area with substrate EPLYFQS
1 | F6Q | 0.0887 | 0.0963 | 0.0968 | 0.107 | 0.0946 | 0.104 | 0.108 | 0.0803 | 0.116 |  |  |  |  |  |  |  |  | 
2 | K148W | 0.0744 | 0.0931 | 0.125 | 0.101 |  | 0.0897 |  | 0.0767 | 0.0656 | 0.0662 | 0.0729 | 0.093 | 0.0856 |  |  |  |  | 
3 | M122N | 0.177 |  |  |  | 0.117 |  |  |  |  |  | 0.0707 |  |  | 0.0807 | 0.119 |  |  | 
4 | M122T | 0.0955 | 0.13 |  |  | 0.122 | 0.159 |  | 0.095 |  | 0.0949 |  |  |  |  | 0.108 | 0.0924 |  | 
5 | D79H | 0.118 |  |  | 0.143 |  | 0.124 |  | 0.089 |  |  |  |  | 0.0914 |  | 0.105 | 0.0972 | 0.0813 | 
6 | E25D | 0.0958 |  |  | 0.145 | 0.115 | 0.108 | 0.0646 | 0.0966 | 0.0955 | 0.107 | 0.0994 |  | 0.1 | 0.101 | 0.105 | 0.0936 |  | 0.0997
7 | S18E | 0.0998 | 0.126 | 0.107 | 0.0998 |  | 0.103 | 0.146 | 0.0923 |  | 0.0849 |  | 0.136 | 0.0861 |  |  | 0.0953 |  | 0.137
8 | G162A | 0.1 |  |  | 0.108 | 0.114 | 0.101 |  | 0.104 |  |  |  |  | 0.0805 |  |  | 0.0829 | 0.125 | 
9 | V210Q | 0.0914 | 0.114 |  |  | 0.0732 | 0.0843 |  | 0.0693 | 0.0945 | 0.0815 | 0.0836 | 0.101 | 0.0708 |  | 0.074 | 0.0524 | 0.0992 | 
10 | D91W | 0.0868 |  | 0.12 | 0.107 | 0.0823 | 0.111 | 0.0868 | 0.0718 | 0.0857 | 0.15 | 0.096 | 0.121 | 0.104 | 0.114 | 0.0843 | 0.0915 | 0.123 | 0.114
11 | L211H | 0.12 | 0.14 |  | 0.12 |  | 0.114 |  |  |  | 0.117 |  | 0.106 | 0.105 | 0.0757 |  |  |  | 0.144
12 | G28K | 0.0896 | 0.118 |  | 0.102 | 0.0769 | 0.102 |  |  |  | 0.0509 |  | 0.12 | 0.0787 |  | 0.0901 | 0.0665 | 0.108 | 
13 | H29S | 0.11 |  |  | 0.14 | 0.0964 | 0.124 |  | 0.123 |  | 0.0953 |  |  | 0.0625 |  |  |  |  | 0.0356
14 | E103H | 0.0891 | 0.103 |  | 0.107 |  | 0.0795 | 0.0986 | 0.102 |  |  |  | 0.108 | 0.0909 | 0.0845 | 0.0489 | 0.0814 | 0.109 | 0.0782
15 | V200M | 0.087 | 0.0855 | 0.0805 |  | 0.0469 | 0.0694 | 0.0618 |  | 0.0905 | 0.0649 | 0.0746 | 0.0988 | 0.0713 |  |  | 0.0716 | 0.109 | 
16 | G37M | 0.063 | 0.0922 | 0.0798 | 0.0963 | 0.0907 | 0.0741 | 0.0724 | 0.0788 | 0.0885 |  |  | 0.0805 | 0.0957 |  | 0.0704 | 0.0718 |  | 

Row | Variant | area with substrate ECLYFQS | area with substrate EDLYFQS | area with substrate EHLYFQS | area with substrate EQLYFQS | area with substrate ERLYFQS | area with substrate ESLYFQS | area with substrate ETLYFQS | area with substrate EVLYFQS | area with substrate EYLYFQS | area with substrate EILYFQS | area with substrate ELLYFQS | area with substrate EMLYFQS | area with substrate EWLYFQS | area with substrate EFLYFQS | area with substrate EKLYFQS | area with substrate EGLYFQS | area with substrate EELYFQS | area with substrate EPLYFQS
17 | S130I | 0.103 |  |  |  |  | 0.0925 |  | 0.111 |  | 0.0968 | 0.0932 |  |  |  |  |  | 0.0978 | 
18 | G39N | 0.0455 | 0.0478 |  | 0.0255 | 0.0329 | 0.0344 | 0.0393 | 0.0419 | 0.0423 |  |  |  | 0.0409 |  | 0.0424 | 0.048 |  | 
19 | T115E | 0.0566 | 0.124 | 0.132 | 0.12 | 0.0963 |  |  |  | 0.129 |  |  | 0.166 | 0.0959 |  | 0.106 |  | 0.114 | 0.138
20 | R109E | 0.0921 | 0.0873 | 0.108 | 0.108 | 0.119 |  | 0.0852 | 0.0969 |  | 0.0779 | 0.0776 |  | 0.122 |  |  |  | 0.0527 | 
21 | S201A | 0.0836 |  |  | 0.11 |  |  | 0.112 |  |  | 0.0829 | 0.0775 | 0.0751 | 0.132 |  | 0.111 |  | 0.108 | 
22 | L73W | 0.0727 |  |  |  |  |  |  | 0.0392 |  | 0.0688 | 0.06 |  |  |  |  |  |  | 
23 | I164M | 0.0685 | 0.0736 | 0.0614 | 0.0783 | 0.0675 | 0.0787 | 0.0908 | 0.0772 | 0.0818 | 0.0787 | 0.0677 | 0.0736 |  | 0.0897 | 0.082 | 0.0743 | 0.0882 | 0.0984
24 | T114W | 0.0922 |  | 0.111 | 0.114 | 0.135 | 0.0919 |  | 0.0939 |  | 0.108 | 0.0715 | 0.111 | 0.0937 | 0.0979 | 0.0926 | 0.0785 | 0.113 | 
25 | T114A | 0.101 |  |  | 0.109 | 0.103 | 0.105 |  |  |  | 0.09 | 0.08 |  |  |  | 0.128 | 0.0843 |  | 0.116
26 | Q105Y | 0.0983 | 0.14 | 0.0934 |  |  |  |  | 0.0933 |  | 0.102 | 0.106 | 0.101 | 0.0907 | 0.0728 |  |  | 0.117 | 0.0941
27 | T70H |  | 0.0756 |  | 0.0754 | 0.0611 | 0.0772 |  | 0.0409 | 0.0896 | 0.0991 | 0.0705 | 0.0933 |  |  |  | 0.0678 |  | 
28 | T70G | 0.0873 | 0.0817 |  |  | 0.076 | 0.0801 |  | 0.0632 |  | 0.0748 | 0.0636 |  | 0.0671 |  | 0.0859 | 0.0541 |  | 0.0908
29 | P228V | 0.0996 |  | 0.0951 | 0.127 |  | 0.113 | 0.124 | 0.103 | 0.156 |  |  |  | 0.119 |  |  | 0.107 | 0.17 | 
30 | T129V | 0.076 | 0.0825 | 0.11 |  | 0.0684 | 0.0921 | 0.0936 | 0.0983 |  | 0.0696 | 0.0865 | 0.116 | 0.0877 |  |  |  |  | 0.0869
31 | P89H | 0.0957 |  |  | 0.0632 |  |  |  | 0.0807 | 0.108 | 0.0928 |  | 0.131 |  |  | 0.0925 |  |  | 
32 | K68C | 0.107 | 0.149 | 0.144 | 0.119 | 0.077 | 0.103 | 0.0977 | 0.139 | 0.122 | 0.133 | 0.0865 |  |  |  | 0.134 |  | 0.126 | 0.136
